The source gives no read counts; variants with many changes may rest on few reads.

We go through 56 variants from the RNAGym collection of RNA variant scans (doi:10.7554/elife.90254).

B1: LINE1-mini (parent)
chain: GGCAGAGCUCAACACAGCGUGGCAAAGUGGCUGUGGCUAGACUGCC

The data set covers variants of B1. Put plainly: self-cleavage, relative activity (ratio to wild type); higher = more cleavage; in vitro, sequencing; the parent is a self-cleaving ribozyme.
As for GCCAGAGCUCAACACAGCGUGGCAACGUGGCUGUGGCUAGACUGCG, the self-cleavage is 0.04.

Consider GCCGGAGCUCAACACAGCGUGGCAAAGUGGCUGUGGAUAAACUGCC, for which the self-cleavage was found to be 0.06.

Take GACAGAGCUCAACACAGCGUGGCAAAGUGGCUGUGGCCAGACUGGC: the self-cleavage turned out to be 0.45.

For the variant GCCAGAGCUCACCACAGCGUGGCAACGUUGCUGUGUCUAGACUGCC, the self-cleavage amounted to 0.05.

Consider GCCAGUGCUCAACACAGCGUGGCAAAGUUGCUGUGGCUAGACUGCC, for which the self-cleavage was found to be 0.14.

Regarding GCCUGAGCUCAACACAGCGUCGCAAAGUAGCUGUGGCUAGACUGCC, the self-cleavage worked out at 0.05.

As to GACAGAGCCCAACACAGCGUGACAAUGUGGCUGUGGUUAGACUGCC, the self-cleavage turned out to be 0.04.

As for GCCAGAGCUCAACACCGCGUGGCAAAGUGGCUGUGGCUAGAAUGCC, the self-cleavage is 0.

Turning to GACAGAGCACAACGCACCGUGGCAAAGGGGCUGUGGCUAGACUGCC, the self-cleavage worked out at 0.12.

For GCUAGAGCUCAACACAGCGUGGCCAAGUGGCUGUGGCUAGACUGCC, the self-cleavage was 0.05.

As to GCCUGAGCUCAAAACCGCGUGGCAAAUUGGCUGUGGCUAGACUGCC, the self-cleavage came out at 0.07.

GCCUGAGCCCAACACAGCGAGGCAAUGUGGCUGUGGCUAGACUGCC: the self-cleavage stood at 0.03.

With GCCUGAGCUCAACUCAGCGUGGCAGAGUGGCUGUGGCUAGAAUCCC, the self-cleavage worked out at 0.01.

On to GACAGAGCUCAACACAGCGUGGCAAAGUGGCUGUGACCAGACUGCC, for which the self-cleavage came to 0.09.

Take GCCAGUGCUCAACACAGCGUGGAAAAGUGGCUGUGACUAGACUGCC: the self-cleavage is 0.07.

In the case of GCCCGAGCUCAACACAGCGUGGCAAAUUGGCUGUGGCCAGACUGCC, the self-cleavage was 0.12.

With GCCCGAGCUCGACACAGCGUGGCAAAGUGGCUGUAGCUAGACUGCC, the self-cleavage was found to be 0.02.

For the variant GCCCGAGCUUAACACAGCGUGGCAAAGUGGCUGUGGCUAGACUGCC, the self-cleavage stood at 0.05.

Take GCCAGAGCUCACCACAACGUGGCAAAGUGGCUGUGGCUAGGCUGCC: the self-cleavage was 0.03.

Consider GCCAGAGCUCAUCACAGCGUGGCAAAGUGACUGUGGCUAGACUGGG, for which the self-cleavage worked out at 0.12.

Consider GCCAGAGCUCAACACCGCGUGGCAAAGUGGCAGUGGCUAGACUGCA, for which the self-cleavage came out at 0.06.

Regarding GCCAGAGCUCUACACAGCGUGGGAAAGUGGCUGUGGCUAGACUGCC, the self-cleavage is 0.03.

Consider GACAGAGCUCAACACAGCGGGGCAAACUGGCUGUGGCUAGACUGCC, for which the self-cleavage turned out to be 0.07.

Take GCCAGAGCUCAGCACAGCGUGGCAAAGUGGCUGUCGCUUUACUGCC: the self-cleavage was 0.22.

For the variant GACAGAGCGCAACACGGCUUGGCAAAGUGGCUGUUGCUAGGUUGCC, the self-cleavage stood at 0.26.

GCCAGAGCUCAACACAGCGUGGCAAUGUGGCUGUAGCUAGACUGCC: the self-cleavage is 0.41.

Consider GCCGGAGCCCAACACAGCGUGGCAAAGUGGAUGUGGCUAAACUGCC, for which the self-cleavage is 0.03.

Regarding GCAAGAGCUCAGCACAGCGUGGCAAAGUGGCUGUGGCUAGACUGCC, the self-cleavage was determined as 0.04.

Turning to GCAAGAGCUCAACACAGCGUGGGAAAGUGGCUGUGGCUCGACUGCC, the self-cleavage was determined as 0.08.

For the variant GCCAGAGCUCAACACAGCGUGGCAACGUGGCUAUGGCCAGACUGCC, the self-cleavage is 0.22.

For GCCAGAGCUCAACCCAGCGUGGCAAAGUGGCUGUGACUAGACUGCC, the self-cleavage worked out at 0.06.

For GACAGAGCGCAACACACCGUGGCAAAGUGGCUGUGGCUAGACUGCC, the self-cleavage came out at 0.36.

In the case of GCCAGAGCUCCACACAGCGUGGCAAAGAGGCUGUGGCUAGACUGCC, the self-cleavage turned out to be 0.04.

Consider GCUAGAGCUCAACACAGCGUGGCACAGUGGCUGUGGCUGGACUGCC, for which the self-cleavage amounted to 0.03.

Turning to GACAGAGCGAAACACAGCGUGGCAAAGUGGCUGUGGGUAGAAUGCC, the self-cleavage stood at 0.01.

In the case of GACAGAGCUCAACACAGCGUGGCAAAGCGGCUGUCGCUUGACUGCC, the self-cleavage is 0.11.

Regarding GCCGGAUCUCAACACAAAGUGUCAAAGUGCCUGUGGCUAGACAGCC, the self-cleavage is 0.07.

Turning to GCCAGCGCUCAGCACGGCGUGGCAAAGUGGCUAUUGAUAGACUGCC, the self-cleavage is 0.15.

Consider GACAGAGCCCAACACAGCGUGGCUAAGUGGCAGUGUCUAGACUGCC, for which the self-cleavage amounted to 0.01.

GCCAGUGCUCAACACAGCGUGGUAAAGUGGCUGUGGCUAGGCUGCC: the self-cleavage stood at 0.19.

In the case of GCCAGAGCUCAACUCAGCGUGGCAAAGUGGCUGCGGCUAGACUGCC, the self-cleavage came out at 0.07.

GCCAGCGCUCAAUACAGCGUGGCAAAGUGGGUGUGGCUAUACUGCC: the self-cleavage amounted to 0.07.

For the variant GCCCGAGCUCAACACAGCGUGGCAAAGUGGCUGUGGAUAGACCGCC, the self-cleavage amounted to 0.05.

Turning to GCCAGAGCUCAACACAGCGUGGCGAAGUGGAUGUGGAUAGACUGCC, the self-cleavage stood at 0.05.

In the case of GCCAGAGCUCAACACCGCGUCGCAAAGUGGCUGUGGCUAGACUGCC, the self-cleavage came out at 0.11.

In the case of GACAGAGCGCAACACGGCGUGGUAAAGUGGCUGUGGCUAGACUGCC, the self-cleavage was 0.01.

With GCCAGAGCUCAACUCAGCGUGGCAAAGUGGCUGUGGCUGGACUGCC, the self-cleavage was 0.07.

GCCGCAGAUCAACACAGCGUGGCAAAGUGGUUGUGGCUAGACUCCC: the self-cleavage is 0.17.

In the case of GACAGAGCACAACACAGCGUGGCAAAGAGGCUGUGGCUAGACUGCC, the self-cleavage was found to be 0.67.

Consider GCCAGGGCUCAACACAGCGUGGCAAAGUGGAUGUGGCUAGACUGCC, for which the self-cleavage is 0.04.

GCCCGAGUUCAACACGGCGUGGCAAAGUGGCUGUGGAUAGACUGCC: the self-cleavage came out at 0.02.

On to GCCAGUGCUCAACACAGCGUAGCAAAGCAGCUGUAGCUAGACUGCA, for which the self-cleavage is 0.52.

As to GCAAGAGCUCAACACAGCGUGCCAAAGUCGCUGUGGCUAGACUGCC, the self-cleavage stood at 0.07.

Consider GCCCGAGCUCAACACAGCGUGGCAAAGUGGCUGUGGCUAGACAGCC, for which the self-cleavage turned out to be 0.06.

For GCCAGUCCUCAACACAGCGUGGCAAAGUGGCUGUGGCUAGACCGCC, the self-cleavage was 0.42.

As for GACAGAGCUCAACACAGCGGGCCAAAGUGGCUGUGGCUAGACUGCC, the self-cleavage stood at 1.46.
